The test system of this assay is TYKNU. Briefly: fractional viability relative to vehicle; TYKNU is a high-grade serous ovarian cancer line; higher = less growth inhibition. To be noted: 72 h. In a few lines:
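TYKNU control cells or lentiCRISPRv2 knockout derivatives were seeded at 500 cells per well into drug-stamped 384-well plates holding a ~2100-compound library at 2 or 10 μM, in duplicate. Cells were grown at 37 °C in 5% CO2 in RPMI 1640 with 10% FBS, and drug treatment lasted 72 h. Viability was read by Cell Titer Glo luminescence. Duplicate treatment wells were averaged and normalised to duplicate control wells from the same plate position.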

The mark [1] stands for this setting: 2uM, genotype: DNM1L knockout (sgDNM1L #1).
The mark [2] stands for this setting: 2uM, genotype: sgCTRLA1 (non-targeting control).
Where [3] appears, read: 10uM, genotype: DNM1L knockout (sgDNM1L #1).
[4] abbreviates: 10uM, genotype: sgCTRLA1 (non-targeting control).

Structures can show the parent of a compound that is named as a salt. The full ranking holds about 2,000 compounds; the median of “fractional viability relative to vehicle” is about 0.91, and the lowest 2% start at about 0.045. Some of the results follow.

Take `O=C(CCCCCCC(=O)Nc1ccccc1)NO` [Vorinostat (SAHA, MK0683)]: the fractional viability by setting is: under setting [1], 0.506; under setting [2], 0.615; under setting [3], 0.132; under setting [4], 0.18.
As to `CC[C@H]1OC(=O)C[C@@H](O)[C@H](C)[C@@H](O[C@@H]2O[C@H](C)[C@@H](O[C@H]3C[C@@](C)(O)[C@@H](O)[C@H](C)O3)[C@H](N(C)C)[C@H]2O)[C@@H](CC=O)C[C@@H](C)C(=O)/C=C/C(C)=C/[C@@H]1CO[C@@H]1O[C@H](C)[C@@H](O)[C@@H](OC)[C@H]1OC` [Tylosin tartrate], the fractional viability is, setting by setting: under setting [1], 1.74; under setting [2], 1.33; under setting [3], 1.33; under setting [4], 1.24.
For the compound `O=C(/C=C/c1ccc(O)c(O)c1)c1ccc(O)cc1O` [Butein], the fractional viability is 0.836 under setting [1], 0.916 under setting [2], 0.609 under setting [3] and 0.483 under setting [4].
Take `Cc1ccc(NC(=O)c2cccc(N(C)C)c2)cc1NC(=O)c1ccc(O)cc1`: the fractional viability by setting is: under setting [1], 1.12; under setting [2], 1.07; under setting [3], 0.938; under setting [4], 0.98.
On to `O=C1NCCc2[nH]c(-c3ccncc3)cc21`, for which the fractional viability is, setting by setting: under setting [1], 0.853; under setting [2], 0.85; under setting [3], 0.286; under setting [4], 0.305.
As to `COc1ccc(S(=O)(=O)Nc2cccnc2Nc2ccc(O)cc2)cc1`, the fractional viability is 0.739 under setting [1], 0.875 under setting [2], 0.195 under setting [3] and 0.162 under setting [4].
As for `CCNC(=O)CCC/C=C\C[C@@H]1[C@@H](/C=C/[C@@H](O)CCc2ccccc2)[C@H](O)C[C@@H]1O` [Bimatoprost], the fractional viability is, setting by setting: under setting [1], 0.998; under setting [2], 1.09; under setting [3], 0.99; under setting [4], 1.06.
In turn, `COC(=O)C1=C(C)NC(C)=C(C(=O)OC2CCCN(Cc3ccccc3)C2)C1c1cccc([N+](=O)[O-])c1` (stereo not given) [Benidipine HCl] yielded a fractional viability under setting [1] of 0.974, a fractional viability under setting [2] of 0.954, a fractional viability under setting [3] of 0.606 and a fractional viability under setting [4] of 0.883.
On to `CC1(C)O[C@@H]2C[C@H]3[C@@H]4CCC5=CC(=O)C=C[C@]5(C)[C@H]4[C@@H](O)C[C@]3(C)[C@]2(C(=O)CO)O1` [Desonide], for which the fractional viability was 1.02 under setting [1], 1.19 under setting [2], 0.987 under setting [3] and 1.16 under setting [4].
For `O=C(O)c1ccc2c(c1)nc(Nc1cccc(Cl)c1)c1ccncc12` [CX-4945 (Silmitasertib)] the same measures were 0.969, 0.999, 0.275 and 0.324.
In the same order, the values of `NCCCCCNCC12CC3CC(CC(C3)C1)C2` [IEM 1754 dihydrobroMide] are 0.967, 0.972, 0.91 and 0.898.
In the same order, the values of `CC1(C)CCC[C@]2(C)[C@H]3CC(=O)O[C@]3(C)CC[C@@H]12` [Sclareolide] are 0.87, 1.08, 0.822 and 1.02.
In turn, `COc1c(N2C[C@@H]3CCCN[C@@H]3C2)c(F)cc2c(=O)c(C(=O)O)cn(C3CC3)c12` [Moxifloxacin HCl] returned a fractional viability under setting [1] of 0.939, a fractional viability under setting [2] of 1.18, a fractional viability under setting [3] of 1.09 and a fractional viability under setting [4] of 1.21.
`CC(=O)OCC(=O)[C@@]1(O)[C@H](C)C[C@H]2[C@@H]3CCC4=CC(=O)C=C[C@]4(C)[C@@]3(F)[C@@H](O)C[C@@]21C` [Dexamethasone Acetate]: the fractional viability turned out to be 1.21 under setting [1], 1.18 under setting [2], 1.05 under setting [3] and 1.14 under setting [4].
`COc1ccc(C(=O)CC(=O)c2ccc(C(C)(C)C)cc2)cc1` [Avobenzone]: the fractional viability by setting is: under setting [1], 0.959; under setting [2], 1.21; under setting [3], 0.773; under setting [4], 0.925.
Regarding `Nc1nc2c(ncn2COCCO)c(=O)[nH]1` [Aciclovir], the fractional viability runs as follows: under setting [1], 1.15; under setting [2], 1.06; under setting [3], 0.937; under setting [4], 0.984.
Take `CC(C)NCC(O)c1ccc(O)c(O)c1` (stereo not given) [Isoprenaline HCl]: the fractional viability is 0.914 under setting [1], 1.1 under setting [2], 0.836 under setting [3] and 1.1 under setting [4].
`CS(=O)(=O)N1CCN(Cc2cc3nc(-c4cccc5[nH]ncc45)nc(N4CCOCC4)c3s2)CC1`: the fractional viability stood at 0.627 under setting [1], 0.588 under setting [2], 0.272 under setting [3] and 0.249 under setting [4].
On to `COc1ccc2[nH]c([S@@+]([O-])Cc3ncc(C)c(OC)c3C)nc2c1` [Esomeprazole Sodium], for which the fractional viability by setting is: under setting [1], 1.26; under setting [2], 1.19; under setting [3], 1.31; under setting [4], 1.18.
`COc1ccc2[nH]c([S@@+]([O-])Cc3ncc(C)c(OC)c3C)nc2c1` [Esomeprazole Magnesium] displayed a fractional viability under setting [1] of 1.16, a fractional viability under setting [2] of 1.21, a fractional viability under setting [3] of 0.985 and a fractional viability under setting [4] of 1.17.
On to `Cc1cc(N2CCOCC2)cc2[nH]c(-c3c(NC[C@@H](O)c4cccc(Cl)c4)cc[nH]c3=O)nc12`, for which the fractional viability under setting [1] was found to be 0.488, the fractional viability under setting [2] was found to be 0.845, the fractional viability under setting [3] amounted to 0.35 and the fractional viability under setting [4] was found to be 0.472.
For `COc1cc(F)c(F)c(Nc2ccc(I)cc2F)c1NS(=O)(=O)C1(C[C@H](O)CO)CC1` [Refametinib (RDEA119, Bay 86-9766)] the same measures were 0.305, 0.298, 0.213 and 0.224.
For `C#C[C@]1(O)CC[C@H]2[C@@H]3CCc4cc(O)ccc4[C@H]3CC[C@@]21C` [Ethinyl Estradiol] the same measures were 0.874, 1.1, 0.371 and 0.475.
For `CC#CC(=O)Nc1ccc2ncnc(Nc3cccc(Br)c3)c2c1`, the fractional viability reads like this: under setting [1], 0.23; under setting [2], 0.186; under setting [3], 0.209; under setting [4], 0.168.
For `O=S(=O)(c1ccccc1)N(CC(F)(F)F)c1ccc(C(O)(C(F)(F)F)C(F)(F)F)cc1`, the fractional viability by setting is: under setting [1], 0.68; under setting [2], 0.865; under setting [3], 0.552; under setting [4], 0.85.
For the compound `O=C(O)c1ccc(N2C(=O)/C(=C\c3ccc(-c4ccc([N+](=O)[O-])cc4)o3)C=C2c2ccccc2)cc1`, the fractional viability is, setting by setting: under setting [1], 0.851; under setting [2], 0.873; under setting [3], 0.899; under setting [4], 0.776.
For `CCOC(=O)C1=C(C)NC(C)=C(C(=O)OCC)C1c1ccccc1/C=C/C(=O)OC(C)(C)C` [Lacidipine] the same measures were 0.904, 1.1, 0.624 and 0.858.
`CCOc1cc(CC(=O)N[C@@H](CC(C)C)c2ccccc2N2CCCCC2)ccc1C(=O)O` [Repaglinide]: the fractional viability runs as follows: under setting [1], 1.03; under setting [2], 1.12; under setting [3], 0.993; under setting [4], 1.13.
In the same order, the values of `O=C(O)C(Cc1c[nH]c2ccccc12)N1C(=O)c2ccccc2C1=O` (stereo not given) are 1.1, 1.16, 0.798 and 1.14.
In the same order, the values of `CCOC(=O)c1ncn2c1CN(C)C(=O)c1cc(F)ccc1-2` [Flumazenil] are 0.917, 1.15, 0.901 and 1.04.
In the case of `CNC(=O)c1ccccc1Nc1nc(Nc2ccc(N3CCOCC3)cc2OC)ncc1Cl`, the fractional viability under setting [1] was found to be 0.85, the fractional viability under setting [2] amounted to 0.837, the fractional viability under setting [3] stood at 0.292 and the fractional viability under setting [4] turned out to be 0.206.
For the compound `CC1=C(C(=O)Nc2cc3cn[nH]c3cc2F)C(c2ccc(C(F)(F)F)cc2)CC(=O)N1` (stereo not given), the fractional viability is, setting by setting: under setting [1], 1.01; under setting [2], 1.16; under setting [3], 0.848; under setting [4], 1.27.
In the case of `Cc1cc(C)c2c(c1)[C@@H](N(Cc1cc(C(F)(F)F)cc(C(F)(F)F)c1)c1nnn(C)n1)CCCN2C[C@H]1CC[C@H](C(=O)O)CC1`, the fractional viability turned out to be 0.887 under setting [1], 1.03 under setting [2], 0.627 under setting [3] and 0.858 under setting [4].
For `CCCCN(Cc1ccc(C(=O)NO)cc1)C(=O)Nc1ccccc1` [Nexturastat A], the fractional viability runs as follows: under setting [1], 0.754; under setting [2], 0.703; under setting [3], 0.438; under setting [4], 0.484.
For `COC(=O)N[C@H](C(=O)N1CCC[C@H]1c1ncc(-c2ccc(-c3ccc(-c4cnc([C@@H]5CCCN5C(=O)[C@@H](NC(=O)OC)C(C)C)[nH]4)cc3)cc2)[nH]1)C(C)C` the same measures were 1.04, 1, 0.511 and 0.654.

The values above are taken from the supplement of paper PMC5919970.
